# Test results taken from the supplement of paper PMC8728848.
# The list shows a part of the results.
# B1: MAA (Maackia amurensis), P0DKL3 (protein)
# chain: MATSNSKPTQVLLATFLTFFFLLLNNVNSSDELSFTINNFVPNEADLLFQGEASVSSTGVLQLTRVENGQPQKYSVGRALYAAPVRIWDNTTGSVASFSTSFTFVVKAPNPDITSDGLAFYLAPPDSQIPSGSVSKYLGLFNNSNSDSSNQIVAVELDTYFAHSYDPWDPNYRHIGIDVNGIESIKTVQWDWINGGVAFATITYLAPNKTLIASLVYPSNQTTFSVAASVDLKEILPEWVRVGFSAATGYPTEVETHDVLSWSFTSTLEANCDAATENNVHIARYTA
# Assays:
# Test in all cases: glycan array binding signal (z-score within array); higher = stronger binding
# Settings in all cases: glycan notation: IUPAC condensed, linker removed
# Gal6S(b1-3)GlcNAc6S = molecular target: Gal6S(b1-3)GlcNAc6S
# Procedure, shortened: (§1)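 Arrays were curated from the Consortium for Functional Glycomics database, 3228 in total, and kept only where the protein sequence was available. Binding is expressed as a within-array Z-score. This score was averaged across arrays of the same protein sequence at different concentrations or buffers and across linkers, and negative values can be read as non-binding.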
# Gal6S(b1-4)Glc = molecular target: Gal6S(b1-4)Glc
# Procedure, shortened: as §1
# Gal6S(b1-4)Glc6S = molecular target: Gal6S(b1-4)Glc6S
# Procedure, shortened: as §1
# Gal6S(b1-4)GlcNAc = molecular target: Gal6S(b1-4)GlcNAc
# Procedure, shortened: as §1
# Gal6S(b1-4)GlcNAc6S = molecular target: Gal6S(b1-4)GlcNAc6S
# Procedure, shortened: as §1
# GalNAc(a1-3)Gal = molecular target: GalNAc(a1-3)Gal
# Procedure, shortened: as §1
# GalNAc(a1-3)GalNAc = molecular target: GalNAc(a1-3)GalNAc
# Procedure, shortened: as §1
# [1] = molecular target: GalNAc(a1-3)GalNAc(a1-3)Gal(a1-4)Gal(b1-4)GlcNAc
# Procedure, shortened: as §1
# [2] = molecular target: GalNAc(a1-3)GalNAc(b1-3)Gal(a1-4)Gal(b1-4)Glc
# Procedure, shortened: as §1
# [3] = molecular target: GalNAc(a1-3)GalNAc(b1-3)Gal(a1-4)Gal(b1-4)GlcNAc
# Procedure, shortened: as §1
# GalNAc(b1-3)Gal = molecular target: GalNAc(b1-3)Gal
# Procedure, shortened: as §1
# [4] = molecular target: GalNAc(b1-3)Gal(a1-4)Gal(b1-4)GlcNAc
# Procedure, shortened: as §1
# [5] = molecular target: GalNAc(b1-3)Gal(a1-4)Gal(b1-4)GlcNAc(b1-3)Gal(b1-4)Glc
# Procedure, shortened: as §1
# [6] = molecular target: GalNAc(b1-3)Gal(a1-6)Gal(b1-4)Glc
# Procedure, shortened: as §1
# GalNAc(b1-3)GalNAc = molecular target: GalNAc(b1-3)GalNAc
# Procedure, shortened: as §1
# GalNAc(b1-3)GlcNAc = molecular target: GalNAc(b1-3)GlcNAc
# Procedure, shortened: as §1
# GalNAc(b1-4)Gal(b1-4)Glc = molecular target: GalNAc(b1-4)Gal(b1-4)Glc
# Procedure, shortened: as §1
# GalNAc(b1-4)GlcNAc = molecular target: GalNAc(b1-4)GlcNAc
# Procedure, shortened: as §1
# [7] = molecular target: GalNAc(b1-4)GlcNAc(b1-2)Man
# Procedure, shortened: as §1
# [8] = molecular target: GalNAc(b1-4)GlcNAc(b1-2)Man(a1-3)[GalNAc(b1-4)GlcNAc(b1-2)Man(a1-6)]Man(b1-4)GlcNAc(b1-4)GlcNAc
# Procedure, shortened: as §1
# [9] = molecular target: GalNAc(b1-4)GlcNAc(b1-3)GalNAc(b1-4)GlcNAc
# Procedure, shortened: as §1
# GalNAc(b1-4)GlcNAc6S = molecular target: GalNAc(b1-4)GlcNAc6S
# Procedure, shortened: as §1
# GalNAc(b1-6)GalNAc = molecular target: GalNAc(b1-6)GalNAc
# Procedure, shortened: as §1
# GalNAc3S(b1-4)GlcNAc = molecular target: GalNAc3S(b1-4)GlcNAc
# Procedure, shortened: as §1
# GalNAc3S(b1-4)GlcNAc3S = molecular target: GalNAc3S(b1-4)GlcNAc3S
# Procedure, shortened: as §1
# [10] = molecular target: GalNAc3S(b1-4)[Fuc(a1-3)]GlcNAc
# Procedure, shortened: as §1
# GalNAc4S6S(b1-4)GlcNAc = molecular target: GalNAc4S6S(b1-4)GlcNAc
# Procedure, shortened: as §1
# GalNAc6S(b1-4)GlcNAc = molecular target: GalNAc6S(b1-4)GlcNAc
# Procedure, shortened: as §1
# Glc(a1-4)Glc = molecular target: Glc(a1-4)Glc
# Procedure, shortened: as §1
# [11] = molecular target: Glc(a1-4)Glc(a1-4)Glc(a1-4)Glc
# Procedure, shortened: as §1
# Glc(a1-6)Glc(a1-6)Glc = molecular target: Glc(a1-6)Glc(a1-6)Glc
# Procedure, shortened: as §1
# [12] = molecular target: Glc(a1-6)Glc(a1-6)Glc(a1-6)Glc
# Procedure, shortened: as §1
# Glc(b1-4)Glc = molecular target: Glc(b1-4)Glc
# Procedure, shortened: as §1
# Glc(b1-6)Glc = molecular target: Glc(b1-6)Glc
# Procedure, shortened: as §1
# GlcA(b1-3)Gal = molecular target: GlcA(b1-3)Gal
# Procedure, shortened: as §1
# GlcA(b1-3)GlcNAc = molecular target: GlcA(b1-3)GlcNAc
# Procedure, shortened: as §1
# GlcA(b1-6)Gal = molecular target: GlcA(b1-6)Gal
# Procedure, shortened: as §1
# [13] = molecular target: GlcA3S(b1-3)Gal(b1-4)GlcNAc(b1-2)Man
# Procedure, shortened: as §1
binder,measurement,setting,value
B1,glycan array binding signal (z-score),Gal6S(b1-3)GlcNAc6S,-0.311
same,glycan array binding signal (z-score),Gal6S(b1-4)Glc,-0.187
same,glycan array binding signal (z-score),Gal6S(b1-4)Glc6S,-0.213
same,glycan array binding signal (z-score),Gal6S(b1-4)GlcNAc,0.36
same,glycan array binding signal (z-score),Gal6S(b1-4)GlcNAc6S,-0.016
same,glycan array binding signal (z-score),GalNAc(a1-3)Gal,-0.197
same,glycan array binding signal (z-score),GalNAc(a1-3)GalNAc,-0.289
same,glycan array binding signal (z-score),[1],-0.221
same,glycan array binding signal (z-score),[2],-0.179
same,glycan array binding signal (z-score),[3],-0.209
same,glycan array binding signal (z-score),GalNAc(b1-3)Gal,-0.193
same,glycan array binding signal (z-score),[4],-0.26
same,glycan array binding signal (z-score),[5],-0.193
same,glycan array binding signal (z-score),[6],-0.204
same,glycan array binding signal (z-score),GalNAc(b1-3)GalNAc,-0.186
same,glycan array binding signal (z-score),GalNAc(b1-3)GlcNAc,-0.22
same,glycan array binding signal (z-score),GalNAc(b1-4)Gal(b1-4)Glc,-0.211
same,glycan array binding signal (z-score),GalNAc(b1-4)GlcNAc,-0.03
same,glycan array binding signal (z-score),[7],-0.014
same,glycan array binding signal (z-score),[8],1.18
same,glycan array binding signal (z-score),[9],-0.165
same,glycan array binding signal (z-score),GalNAc(b1-4)GlcNAc6S,-0.365
same,glycan array binding signal (z-score),GalNAc(b1-6)GalNAc,-0.356
same,glycan array binding signal (z-score),GalNAc3S(b1-4)GlcNAc,2.31
same,glycan array binding signal (z-score),GalNAc3S(b1-4)GlcNAc3S,-0.286
same,glycan array binding signal (z-score),[10],-0.291
same,glycan array binding signal (z-score),GalNAc4S6S(b1-4)GlcNAc,-0.321
same,glycan array binding signal (z-score),GalNAc6S(b1-4)GlcNAc,-0.065
same,glycan array binding signal (z-score),Glc(a1-4)Glc,-0.165
same,glycan array binding signal (z-score),[11],-0.135
same,glycan array binding signal (z-score),Glc(a1-6)Glc(a1-6)Glc,-0.199
same,glycan array binding signal (z-score),[12],-0.192
same,glycan array binding signal (z-score),Glc(b1-4)Glc,-0.161
same,glycan array binding signal (z-score),Glc(b1-6)Glc,-0.215
same,glycan array binding signal (z-score),GlcA(b1-3)Gal,-0.189
same,glycan array binding signal (z-score),GlcA(b1-3)GlcNAc,-0.245
same,glycan array binding signal (z-score),GlcA(b1-6)Gal,-0.167
same,glycan array binding signal (z-score),[13],-0.269
